System: Z. tritici IPO323
Settings: for 5×IC100: Z. tritici, fungicide amended plates used to confirm resistant colonies

CO/C=C(/C(=O)OC)c1ccccc1Oc1cc(Oc2ccccc2C#N)ncn1 [Azoxystrobin]
5×IC100: 1.5 µg/mL

CCCCCCCCCCCCCCCCCC[S+](C)C.[Cl-] [ODS-Cl, octadecyl dimethyl sulfonium chloride]
inhibition of plate growth, times better than ODS-I: ~2.5 times

Cn1cc(C(=O)Nc2ccccc2-c2cc(F)c(F)c(F)c2)c(C(F)F)n1 [Fluxapyroxad]
5×IC100: 3.0 µg/mL
